PubChem BioAssay AID743255 (National Center for Advancing Translational Sciences (NCATS), 2014)
Among all 390,000 compounds or so, about 910 (0.23%) were called active. Another 5% or so got no clear call; they are omitted. Calls come from the whole dose curve; as a rule, active = well fitted inhibition curve with a large enough effect; inconclusive = small, poorly fitted or top-dose-only effect; inactive = no such curve, though single readings can be large or run the other way. The entries are a selection whose mix differs from that of the whole data set.

Target: Ubiquitin carboxyl-terminal hydrolase 1 (Homo sapiens) (UniProt O94782)
Chain of UniProt O94782 (O94782 whole entry, looked up): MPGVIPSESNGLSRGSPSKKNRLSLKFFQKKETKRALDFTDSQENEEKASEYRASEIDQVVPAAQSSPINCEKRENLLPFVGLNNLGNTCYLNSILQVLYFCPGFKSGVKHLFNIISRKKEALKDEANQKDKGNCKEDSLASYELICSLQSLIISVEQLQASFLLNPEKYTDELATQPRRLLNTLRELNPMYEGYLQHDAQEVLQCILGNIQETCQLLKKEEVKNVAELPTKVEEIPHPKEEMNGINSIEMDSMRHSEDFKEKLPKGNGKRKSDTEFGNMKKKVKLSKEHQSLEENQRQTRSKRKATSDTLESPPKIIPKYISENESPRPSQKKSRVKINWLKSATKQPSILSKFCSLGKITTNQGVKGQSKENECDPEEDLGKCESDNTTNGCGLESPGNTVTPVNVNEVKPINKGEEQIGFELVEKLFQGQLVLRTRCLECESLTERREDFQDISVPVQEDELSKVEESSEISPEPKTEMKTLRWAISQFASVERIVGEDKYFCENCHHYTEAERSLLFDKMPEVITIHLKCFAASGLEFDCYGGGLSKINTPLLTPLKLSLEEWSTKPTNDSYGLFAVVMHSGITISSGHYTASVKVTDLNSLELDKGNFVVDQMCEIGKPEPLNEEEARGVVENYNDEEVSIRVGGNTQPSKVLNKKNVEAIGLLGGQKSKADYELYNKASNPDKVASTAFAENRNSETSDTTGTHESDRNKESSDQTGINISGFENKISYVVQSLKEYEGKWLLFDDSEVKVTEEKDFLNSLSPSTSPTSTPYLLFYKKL
Assay: Inhibitors of USP1/UAF1: Primary Screen; note: nearly all actives have a fitted effect of over 60% in size
Conditions: recombinant USP1/UAF1, Ub-Rhodamine cleavage fluorescence; activity change, negative = inhibition: at 57.1 µM (top of the series)
How it was run: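 Step one: compound is pinned into 1nM USP1/UAF1 in HEPES pH 7.8 buffer with TCEP. Step two: 15 min room-temperature incubation. Step three: Ub-Rho (150nM final) starts cleavage, tracked by fluorescence over six one-minute reads.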
% is set by controls: 0 for no effect and ±100 for the full control effect; potency is the fitted concentration of half-maximal effect.

Activity change, negative = inhibition, inactive:
O=C1CSC(c2cccs2)N1c1ccccc1 (stereo not given) 41%
C[C@@H]1CN([C@H](C)CO)C(=O)CCCn2nncc2CO[C@H]1CN(C)Cc1ccccc1C(F)(F)F -17.8%
OCC[C@@H]1C[C@H](O)[C@@H](O)[C@]2(OCc3ccccc32)O1 -8.85%
C#CCNC(=O)C1=C[C@@H](c2ccc3c(c2)OCO3)C[C@@H](OCc2ccc(CO)cc2)O1 -1.45%
O=C1NC(=S)N/C1=C\c1cccc([N+](=O)[O-])c1 -6.35%
COc1ccccc1CN1CCN(Cc2nc(-c3ccc(C)cc3)oc2C)CC1 35%
COc1ccc(N2CCN(CCCNC(=O)Nc3ccccc3)CC2)cc1 -12.2%
N=C1/C(=C/c2coc3ccccc3c2=O)C(=O)N=C2SC(c3ccco3)=NN12 178%
CC(=O)OCC(=O)[C@@]1(O)CC[C@H]2[C@@H]3CCC4=CC(=O)C=C[C@]4(C)[C@H]3C(=O)C[C@@]21C -19.5%
CC[C@@H]1C/C=C\Cc2ccccc2[C@@H](C(=O)C[C@@H](O)CC(C)=O)OC1=O -21.5%
CCCCOc1cc(C(=O)NCCN(CC)CC)c2ccccc2n1 -14.2%
Cn1nc(C(=O)N2CCc3ccccc3C2)c2ccccc2c1=O 29.6%
COc1ccc(NC(=O)CN(C)S(=O)(=O)c2ccc3c(c2)CCCN3C(C)=O)cc1 -17.2%
N#CC(=C1NC(=O)c2ccccc21)c1nc2ccccc2n1CCO 62.5%
COc1ccc(S(=O)(=O)Nc2cccc3c2O[C@H](CN(C)Cc2ccc(C(=O)O)cc2)[C@@H](C)CN([C@H](C)CO)C3=O)cc1 -9.74%
CC(C(=O)Nc1cc(C(F)(F)F)ccc1N1CCOCC1)N1C(=O)C2CC=CCC2C1=O (stereo not given) -0.28%
COc1ccc2oc(=O)c(-c3nnc(-c4ccc(C)cc4)o3)cc2c1 31.5%
C=CCC[C@@H](Cc1ccc(F)cc1)C(=O)OC[C@@H]1CCCN1C(=O)[C@@H](CC=C)CC(=O)N[C@@H](CO)Cc1ccccc1 -27.2%
CCOc1ccc(CNC(=O)CCCc2cn(C)c3ccccc23)cc1OC -1.16%
CC(C)NCC(O)COc1cccc2ccccc12 (stereo not given) -23%
O=C(COc1ccccc1Cl)Nc1nnc(S(=O)(=O)N2CCCCCC2)s1 6.7%

Potency, active:
O=C1CSC(=S)N1/N=C/c1cc(Br)c(O)c(Br)c1 17.8 µM
CCOC(=O)c1c(C)sc(-c2c(-c3ccc4c(c3)OCCO4)[nH]c3c2c(=O)n(C)c(=O)n3C)c1O 15.8 µM
COc1ccc2c(c1)Cc1sc(NC(=O)c3cccc(C)c3)nc1-2 35.5 µM

Potency, inactive:
COC(=O)[C@@H]1[C@H]2C[C@H]3c4[nH]c5ccccc5c4CCN3C[C@@H]2CC[C@@H]1O
